The full ranking holds about 33,000 sequences; the median of “E-score (-0.5 to 0.5)” is about -0.043, and the highest 2% start at about 0.37. The list shows a part of the results.
Biological target: T1, Upc2 (UniProt Q12151)
T1 sequence: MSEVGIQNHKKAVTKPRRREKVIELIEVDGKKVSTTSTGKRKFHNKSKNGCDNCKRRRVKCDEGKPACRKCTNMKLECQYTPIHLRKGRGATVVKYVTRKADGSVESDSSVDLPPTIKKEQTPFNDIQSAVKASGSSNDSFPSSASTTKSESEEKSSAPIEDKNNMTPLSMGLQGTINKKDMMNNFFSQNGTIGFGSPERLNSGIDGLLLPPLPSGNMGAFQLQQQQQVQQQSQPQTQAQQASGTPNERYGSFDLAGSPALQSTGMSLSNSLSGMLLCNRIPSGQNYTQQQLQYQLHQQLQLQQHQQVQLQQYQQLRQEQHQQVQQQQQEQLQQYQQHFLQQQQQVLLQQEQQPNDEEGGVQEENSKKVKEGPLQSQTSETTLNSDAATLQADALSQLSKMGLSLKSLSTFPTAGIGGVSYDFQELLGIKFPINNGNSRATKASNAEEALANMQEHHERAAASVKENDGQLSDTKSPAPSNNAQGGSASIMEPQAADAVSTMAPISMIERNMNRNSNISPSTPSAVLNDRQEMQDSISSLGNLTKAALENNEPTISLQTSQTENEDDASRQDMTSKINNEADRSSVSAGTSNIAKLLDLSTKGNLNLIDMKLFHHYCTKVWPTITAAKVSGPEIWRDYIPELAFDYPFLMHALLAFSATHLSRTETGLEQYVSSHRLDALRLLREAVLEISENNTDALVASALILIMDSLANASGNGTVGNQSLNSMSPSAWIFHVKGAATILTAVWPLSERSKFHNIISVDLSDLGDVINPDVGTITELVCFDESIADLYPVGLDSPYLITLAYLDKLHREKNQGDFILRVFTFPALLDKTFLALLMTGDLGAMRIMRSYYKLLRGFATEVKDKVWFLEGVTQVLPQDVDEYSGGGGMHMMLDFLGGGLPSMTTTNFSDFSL
Assay: PBM E-score (8-mer binding enrichment) (E-score (-0.5 to 0.5)); higher = stronger / more preferred TF binding; most listed sequences are background and not binding sites
Conditions: protein concentration: 200 nM; construct: GST-full length
Procedure, shortened: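 Detection of bound protein used fluorescent anti-GST, with scans normalised by masliner. The proteins were GST-tagged yeast transcription factors applied at about 100-200 nM to universal all-10-mer Agilent arrays made double-stranded by primer extension. Each ungapped eight-base word, pooled with its reverse complement, was scored with an E-score from the Universal PBM Analysis Suite.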

Row | Sequence | PBM E-score
1 | AGGACCTG | -0.116
2 | ATCAGCTA | -0.0378
3 | AGGATGTC | -0.0722
4 | GAAACATA | 0.254
5 | CGATGACA | 0.0742
6 | CTGGCGGA | -0.22
7 | GCGCACTA | -0.00558
8 | GCGCGCCC | -0.218
9 | AAGTGAAA | -0.145
10 | CTACAACA | -0.0131
11 | ACTATTGC | -0.0704
12 | ATAGACGA | 0.186
13 | CCATGAAG | 0.0165
14 | AGGAGATA | -0.256
15 | GGGCCGTA | 0.344
16 | ACGCGGAG | 0.0342
17 | CGGTCCCC | -0.102
18 | GACCAGAC | -0.00063
19 | ATAGCAGG | -0.183
20 | AACTCAGG | -0.0663
21 | CGCTGTAG | -0.165
22 | CGTCTTAG | -0.206
23 | CGCCTTGC | -0.288
24 | TGACGTAA | 0.0846
25 | AGGATTTG | -0.0759

Row | Sequence | PBM E-score
26 | CTCGTCAG | -0.0441
27 | CCGCTCTC | -0.191
28 | ACATGCCA | 0.0357
29 | AATAATTC | 0.107
30 | ATCCCTGC | -0.217
31 | ACCCAGAA | -0.117
32 | AAATTAGG | 0.0314
33 | AGGACTAC | -0.157
34 | ATTTAGGA | 0.0165
35 | AAGAGTCC | -0.244
36 | CAGGCACC | -0.09
37 | GCCTCTGA | -0.2
38 | ATAATGAA | 0.125
39 | AGGAAGGA | -0.249
40 | AACCCTTA | 0.113
41 | TACAGCAA | 0.138
42 | CGGGTTCC | 0.00463
43 | AACTGAAC | 0.129
44 | CCAGCTGA | -0.225
45 | CATAAAAC | -0.118
46 | GGGGGAGA | -0.34
47 | ATTCGACA | 0.00037
48 | AGCCGCGG | 0.119
49 | AGGACGGC | -0.191
50 | GCTAGGCA | -0.285

Row | Sequence | PBM E-score
51 | ACACCTTC | -0.0349
52 | CCGCCTGC | -0.119
53 | CCACTCAA | 0.122
54 | ATATGACA | 0.026
55 | CTACCACA | -0.234
56 | CATGGCGA | -0.234
57 | ATGTTGGG | -0.248
58 | AGTGGCTC | 0.0705
59 | CATCTGTA | 0.0377
60 | AAGAACTA | -0.0199
61 | AGGTACAG | -0.177
62 | CACCAACA | -0.187
63 | GATATTGA | -0.146
64 | TCGAGTCA | -0.148
65 | TAGAAACA | 0.0409
66 | GAATTTAA | 0.0875
67 | GTCGCCAA | -0.0108
68 | TCACAACA | 0.065
69 | ATCGCAGC | 0.085
70 | GCTGTAAA | 0.0282
71 | ATACACAA | 0.212
72 | AAACGGGG | 0.398
73 | CCGGCAGC | -0.365
74 | AGGCTCCG | 0.00672
75 | CTACGCAG | -0.141

Row | Sequence | PBM E-score
76 | CGTCTGGC | -0.0643
77 | AGGGGACT | -0.268
78 | GTGCGCAA | -0.032
79 | ACCTTTGG | -0.258
80 | GAGTTAGC | 0.00639
81 | CCTTCATA | 0.0469
82 | GCCCCGCC | 0.112
83 | ACTAACGA | 0.276
84 | CGTCGTGA | 0.127
85 | CAAGAAGC | -0.075
86 | AGGCCTCA | -0.289
87 | AGTAAACA | 0.0452
88 | GTCGTCTA | 0.248
89 | TCCCTCGA | -0.0965
90 | CGAACGCG | 0.185
91 | GCAACTAA | -0.0788
92 | CGTTTCGC | 0.301
93 | CTTACTAC | 0.00475
94 | ATCGCCCC | -0.152
95 | GGAGGGAC | -0.118
96 | CAGGACTG | -0.191
97 | CCCCGGAC | -0.192
98 | CACCCGGA | -0.086
99 | CTTACAGC | -0.0579
100 | CCACTCAG | -0.286

Row | Sequence | PBM E-score
101 | CAACGGAG | -0.242
102 | GTCTCCAA | -0.0343
103 | CCGACGTA | 0.225
104 | GTACTAAA | 0.181
105 | CCTCCTAC | -0.248
106 | ATTTTTGG | -0.29
107 | ACTAGTGC | -0.0458
108 | CACACCCA | 0.17
109 | ACACTAAC | -0.0591
110 | CGATAGAC | -0.052
111 | AGCCCGCC | -0.0552
112 | GAACGCTC | 0.104
113 | AGCAATCA | -0.0232
114 | ACGCACCC | -0.112
115 | CTCTGTAC | 0.143
116 | ATCAGAAT | 0.00706
117 | CTACGTTC | 0.102
118 | CTTCATGA | -0.188
119 | ATATGACC | -0.201
120 | CAGCATGG | -0.0753
121 | AGGCAGGG | -0.2
122 | AGGAGAGG | -0.24
123 | CAGCGAGC | 0.0418
124 | ATAGGAAT | -0.0554
125 | GAAATACC | -0.0219

Row | Sequence | PBM E-score
126 | GAAGCCCC | 0.0139
127 | CTTTGCTA | -0.169
128 | GCGTTTAC | 0.372
129 | CGCCGTAA | 0.285
130 | AAGTCCCT | -0.223
131 | TCCCCTCA | -0.343
132 | GGAGAAGA | -0.344
133 | CCCCCTCC | -0.366
134 | GTGAGGCA | -0.0702
135 | CTAAGGAA | 0.0765
136 | ACACATGG | -0.121
137 | AAACTCGA | -0.0718
138 | CTGCTCGA | -0.0837
139 | ACCATATG | -0.125
140 | TAGCCCCA | -0.142
141 | CAGAAGAC | -0.0374
142 | CGCGTGCC | 0.0186
143 | AGGTCCAG | 0.0723
144 | CCTGAGTC | -0.149
145 | GAGAACGC | 0.0326
146 | ATGTGCCC | -0.109
147 | AGGAGCAG | -0.185
148 | CATTACTC | -0.105
149 | GTAATGAA | -0.0986
150 | AAACCATT | -0.227

Row | Sequence | PBM E-score
151 | CCGCATAG | 0.089
152 | GCTTAAAC | 0.297
153 | CTCGCCAA | 0.0532
154 | ACCATGTA | -0.188
155 | ATTTGGTG | -0.0845
156 | ATTCCGTA | 0.27
157 | ATCACCGG | -0.241
158 | ACAGTTAC | 0.0672
159 | AACCACGC | -0.0526
160 | CTATGGTA | -0.197
161 | ACAATATC | 0.125
162 | CGGTCGGA | -0.0376
163 | GCTCACGA | 0.0766
164 | GATTGTCC | -0.0545
165 | CCGCCGGA | -0.256
166 | AACCAAGC | -0.191
167 | ATGCGTGA | -0.0524
168 | ATGCTGTC | -0.189
169 | TAAAGGAA | 0.117
170 | CGTAGACC | 0.0738
171 | CGCGTACA | 0.35
172 | AGTGCGTC | -0.103
